# Test results from PubChem BioAssay AID903 (National Center for Advancing Translational Sciences (NCATS), 2007).
# Out of some 55,000 compounds screened, about 340 (0.62%) were called active. This list was built around the results that the source calls inconclusive (neither active nor inactive); the mix of calls is not that of the screen. Calls follow the shape of the dose curve; as a rule, active = well fitted cell-killing curve with a large enough effect; inconclusive = small, poorly fitted or top-dose-only effect; inactive = no such curve, though single readings can be large or run the other way. A potency beside an inconclusive call is a rough fit, not a confirmed value.
# Test: qHTS Screen for Compounds that Selectively Target Cancer Cells with p53 Mutations: Cytotoxicity of p53 Null Cells at the Permissive Temperature; also: nearly all actives have a fitted effect of over 55% in size;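 as to activity change, negative = cytotoxicity: 0% = DMSO only and -100% = full killing by 100 µM tamoxifen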
# Details: H1299-neo p53 null cells, ATP luminescence, 24 h, 32C; series mostly up to 46.1 µM; activity change, negative = cytotoxicity: at the top concentration
# Method in brief: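 Cytotoxicity: H1299-neo (no p53), 32C, 24 h treatment. Concentrations up to 46 uM. Readout cellular ATP, luminescence. Normalization to DMSO basal and tamoxifen 100 uM maximal kill.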
# Potency is read from the fitted curve at half-maximal effect; tags tell the direction and shape of the fitted curve.
SMILES,Potency,"activity change, negative = cytotoxicity"
CCc1ccc(C2N=C(N)Nc3nc4ccccc4n32)cc1 (stereo not given),"inconclusive: 31.6 µM [cytotoxic, single point]",–
Cc1ccc2sc(N(CCCN(C)C)C(=O)c3ccco3)nc2c1C,–,inactive: -12.8%
O=C(Nc1ccc2nc(-c3cccs3)[nH]c2c1)c1ccco1,"inconclusive: 11.2 µM [cytotoxic, partial curve]",–
CC(C)(O)c1cc(=O)sc2nc3ccccc3n12,"inconclusive: 11.2 µM [cytotoxic, partial curve]",–
Cn1nnnc1SCCNCc1ccccc1OCc1ccc(Cl)cc1Cl,"inconclusive: 31.6 µM [cytotoxic, single point]",–
Cc1ccc(-n2nc(C)c(C(=O)NCCCN3CCN(c4cccc(Cl)c4)CC3)c2-n2cccc2)cc1,"inconclusive: 31.6 µM [cytotoxic, single point]",–
Cc1ccc(S(=O)(=O)Nc2cccc(-c3ccc(N4CCCC4)nn3)c2)c(C)c1,–,inactive: 17.7%
O=C(Nc1ccc(Oc2ccccc2)cc1)c1ccc(F)c(S(=O)(=O)N2CCN(c3ccccc3F)CC2)c1,–,inactive: 0.498%
Nc1ccc2oc(-c3ccccc3Br)nc2c1,"inconclusive: 12.6 µM [cytotoxic, partial curve]",–
COc1ccccc1NC(=O)c1oc2ccccc2c1NC(=O)Cc1cccs1,"inconclusive: 3.16 µM [cytotoxic, single point]",–
COc1ccccc1-c1nnc(C2CCN(S(=O)(=O)c3ccc(CC(C)C)cc3)CC2)o1,"inconclusive: 22.4 µM [cytotoxic, single point]",–
COc1ccccc1NC(=O)CN1C(=O)CCSc2ccccc21,–,inactive: -5.73%
O=C(NCc1ccccc1Cl)c1ccc(NC(=O)N2CCSc3ccccc32)cc1,–,inactive: -3.22%
O=C(Nc1ccc(F)cc1)c1ccc2c(c1)NC(=O)c1ccccc1S2,"inconclusive: 39.8 µM [cytotoxic, partial curve, poor fit]",–
Cc1cccc(-c2noc(-c3ccc(NCc4cccnc4)c([N+](=O)[O-])c3)n2)c1,"inconclusive: 12.6 µM [cytotoxic, partial curve]",–
CCC(=O)Nc1cccc(OCc2cc(=O)n3cc(C)ccc3n2)c1,"inconclusive: 10 µM [cytotoxic, partial curve]",–
O=C(c1cc(-c2ccccc2O)on1)N1CCCCC1,"inconclusive: 14.1 µM [cytotoxic, partial curve, poor fit]",–
O=C(CCn1c2c(c3ccccc31)CCCC2)NNC(=O)c1ccc([N+](=O)[O-])cc1,"inconclusive: 15.8 µM [cytotoxic, single point]",–
CCOc1ccc(C(=O)Nc2cccc(NC(=O)c3ccc(C(C)(C)C)cc3)c2)cc1Br,"inconclusive: 12.6 µM [cytotoxic, partial curve]",–
Cc1ccc(C(=O)/C=C2\NCCNC2=O)cc1,"inconclusive: 17.8 µM [cytotoxic, partial curve]",–
COc1ccc(NC(=O)CSc2nnc(NC(=O)NC3CCCCC3)s2)cc1OC,active: 12.6 µM,–
Cc1ccc(CNC(=O)c2c[nH]n3c(=O)c(Cc4ccc(Cl)cc4)c(C)nc23)cc1,"inconclusive: 14.1 µM [cytotoxic, single point]",–

SMILES,Potency,"activity change, negative = cytotoxicity"
Cn1c(=O)oc2cc(S(=O)(=O)N3CCCC(C(=O)NCCc4ccccc4)C3)ccc21 (stereo not given),"inconclusive: 3.55 µM [cytotoxic, single point]",–
Cc1cccn2c(=O)c(C(=O)NCCc3ccccc3)cnc12,"inconclusive: 20 µM [cytotoxic, partial curve]",–
COc1ccc(CNCCC(c2ccc3c(c2)OCO3)c2ccccc2OC)cc1 (stereo not given),–,inactive: 3.65%
Fc1cccc(-c2nnn3c2nc(NCCc2ccccc2)c2ccccc23)c1,"inconclusive: 35.5 µM [cytotoxic, single point]",–
Cc1cccc(OCC(=O)Nc2ccc(-c3nc4ccccc4o3)cc2)c1C,"inconclusive: 15.8 µM [cytotoxic, single point]",–
Cc1[nH]n(-c2ccc(Cl)cc2)c(=O)c1/C=N/n1c(C)nc2ccccc2c1=O,"inconclusive: 7.94 µM [cytotoxic, partial curve]",–
CCn1nnnc1SCC(=O)c1ccc(C)cc1C,"inconclusive: 31.6 µM [cytotoxic, single point]",–
Cc1ccc(CNC(=O)c2ccc(Cn3c(=O)c4ccccc4n(CC(=O)Nc4ccc(C)cc4)c3=O)cc2)cc1,–,inactive: -5.65%
CCc1ccc(-n2c(SCc3ccccc3Cl)nc3[nH]ncc3c2=O)cc1,"inconclusive: 31.6 µM [cytotoxic, single point]",–
COc1cccc(C(=O)NC2=NCCS2)c1,"inconclusive: 11.2 µM [cytotoxic, partial curve, poor fit]",–
CCCCN(CC)C(=O)CSc1c2c(nc3ccc(Cl)cc13)CCCC2,"inconclusive: 14.1 µM [cytotoxic, single point]",–
CC(=O)N1CCCc2cc(S(=O)(=O)N3CCCCC3)ccc21,"inconclusive: 5.62 µM [cytotoxic, single point]",–
CC(C)c1ccc(OC(=O)c2cc(-c3ccc4c(c3)OCCO4)on2)cc1,active: 12.6 µM,–
CC(C)c1ccc2oc(-c3cc(NC(=O)c4cccs4)ccc3Cl)nc2c1,"inconclusive: 31.6 µM [cytotoxic, single point]",–
COc1ccc(-n2c(C)cc(/C=N/Nc3nnc(C)n3N)c2C)cc1,"inconclusive: 3.55 µM [cytotoxic, single point]",–
Cc1cccc(NC(=O)c2sc(C)nc2C)c1,"inconclusive: 10 µM [cytotoxic, partial curve]",–
CCOc1ccccc1Nc1nc(-c2cccc(Cl)c2)c2c(n1)-c1ccccc1OC2,"inconclusive: 15.8 µM [cytotoxic, single point]",–
COc1cccc(-c2ccc3c(N)c(C(=O)Nc4ccc(Cl)cc4F)sc3n2)c1,–,inactive: -16.8%
COc1cccc(CSc2nc3ccccc3[nH]2)c1,"inconclusive: 7.94 µM [cytotoxic, partial curve]",–
COc1c(Cl)cc(C(=O)Nc2cccc(-c3nc4ccccc4[nH]3)c2)cc1Cl,"inconclusive: 25.1 µM [cytotoxic, single point]",–
O=C(C1CC1)N1CCc2cc(Br)cc(S(=O)(=O)Nc3ccc(C(F)(F)F)cc3)c21,"inconclusive: 31.6 µM [cytotoxic, single point]",–
COc1cccc(/C=N/NC(=O)c2[nH]nc3c2CCc2ccccc2-3)c1O,"inconclusive: 3.98 µM [cytotoxic, single point]",–

SMILES,Potency,"activity change, negative = cytotoxicity"
N#C/C(=N\Nc1ccccc1F)C(=N)N1CCCCC1,"inconclusive: 31.6 µM [cytotoxic, single point]",–
COc1ccc(-c2noc(CSc3nnc(-c4ccncc4)n3-c3ccc(OC)cc3)n2)cc1,–,inactive: 7.04%
CCOc1ccc(C2c3[nH]c4ccccc4c3CCN2C(=O)CCC2CCCC2)cc1 (stereo not given),"inconclusive: 3.55 µM [cytotoxic, partial curve, poor fit]",–
Cc1nn(-c2ccc(N3CCCCC3)nn2)c(C)c1CCC(=O)Nc1cccc(F)c1,"inconclusive: 12.6 µM [cytotoxic, partial curve]",–
Cc1oc(-c2ccccc2)nc1Cn1c(=O)cc(-c2ccccc2)c2c(C)nn(C)c21,–,inactive: 9.91%
O=C(CCS(=O)(=O)c1nc(-c2ccc3c(c2)OCO3)cc(C(F)(F)F)n1)Nc1ccccc1C(F)(F)F,"inconclusive: 35.5 µM [cytotoxic, single point]",–
COc1ccc(/C=C/C(=O)Nc2cccc(F)c2)cc1,"inconclusive: 10 µM [cytotoxic, partial curve]",–
COc1ccc(CNC(=O)C2CCN(c3nnc(C)c4c(C)n(-c5ccc(C)cc5)nc34)CC2)cc1,"inconclusive: 25.1 µM [cytotoxic, single point]",–
Cc1ccc(-n2ccnc(NCCc3ccccc3)c2=O)cc1C,"inconclusive: 0.398 µM [cytotoxic, full curve, poor fit]",–
CCOC(=O)c1ccc2nc(NC(=O)c3ccco3)sc2c1,"inconclusive: 14.1 µM [cytotoxic, single point]",–
Cc1ccc(S(=O)(=O)N2CCC(c3nnc(-c4cccc(C)c4)o3)CC2)cc1,"inconclusive: 35.5 µM [cytotoxic, single point]",–
COc1ccc(NC(=O)c2oc3ccccc3c2NC(=O)Cc2cccs2)cc1,"inconclusive: 35.5 µM [cytotoxic, single point]",–
CCC1CCCCN1CCCNC(=O)c1ccc2c(c1)N(Cc1ccc(Cl)cc1)C(=O)c1ccccc1S2(=O)=O (stereo not given),–,inactive: -0.689%
COc1cccc(CNC(=O)c2oc3ccc4c(c3c2C)C(=O)CC(C)(C)O4)c1OC,"inconclusive: 12.6 µM [cytotoxic, partial curve]",–
CCN(CC)CCn1c2c(c(SCC(=O)Nc3cccc(C(F)(F)F)c3)nc1=O)CCC2,–,inactive: -8.45%
O=C(Nc1cc2ccc(O)cc2oc1=O)c1ccc(F)cc1,"inconclusive: 2.24 µM [cytotoxic, full curve]",–
O=C(Nc1ccc(F)cc1)C1CCCN(c2ncnc3c2nc2n3CCCCC2)C1 (stereo not given),–,inactive: 2.1%
CCn1c(CN2CCCCC2)nc2cc(NC(=O)c3ccccc3[N+](=O)[O-])ccc21,–,inactive: 13.8%
CCCn1cc(S(=O)(=O)c2ccc(C)cc2)c(=O)c2cc(OC)c(OC)cc21,"inconclusive: 3.16 µM [cytotoxic, single point]",–
CCc1nn(Cc2cccc(F)c2)c(=O)c2cc3cc(C)ccc3n12,–,inactive: 8%
CC(=O)c1ccc(NC(=O)c2ccc(NC(=O)CCS(=O)(=O)c3cccs3)cc2)cc1,"inconclusive: 25.1 µM [cytotoxic, single point]",–
